Data reported in publication PMC2211753.
These are yes or no findings as the source states them, for the method shown. Some entries that bind do so weakly or less than the wild type. Where a sequence is shown, tags or fusion partners need not be part of it.

Experiments:
Test in all cases: two-hybrid; L40 yeast reporter strain cotransformed with LexABD-Vpr (bait) and Gal4AD hybrids (prey); growth on medium without histidine and β-gal filter assay (1 h to 4 h at 30°C)
[1] = molecular target: Vpr-R73G fused to the LexA DNA binding domain (HIV-1 Lai isolate) (UniProt P05928)
[2] = molecular target: Vpr-L67Q fused to the LexA DNA binding domain (HIV-1 Lai isolate) (UniProt P05928)
[3] = molecular target: Vpr-L23F fused to the LexA DNA binding domain (HIV-1 Lai isolate) (UniProt P05928)
[4] = molecular target: wild type HIV-1 Vpr (Lai isolate) fused to the LexA DNA binding domain (HIV-1 Lai isolate) (UniProt P05928)

Row | Molecule | binding [1] | binding [2] | binding [3] | binding [4]
1 | UNG2 fused to the Gal4 activation domain (from UniProt P13051-1 1-313) | binds | binds | binds | binds
2 | human CG1 nucleoporin fused to the Gal4 activation domain (protein, UniProt O15504 1-423) MAICQFFLQGRCRFGDRCWNEHPGARGAGGGRQQPQQQPSGNNRRGWNTTSQRYSNVIQPSSFSKSTPWGGSRDQEKPYFSSFDSGASTNRKEGFGLSENPFASLSPDEQKDEKKLLEGIVKDMEVWESSGQWMFSVYSPVKKKPNISGFTDISPEELRLEYHNFLTSNNLQSYLNSVQRLINQWRNRVNELKSLNISTKVALLSDVKDGVNQAAPAFGFGSSQAATFMSPGFPVNNSSSDNAQNFSFKTNSGFAAASSGSPAGFGSSPAFGAAASTSSGISTSAPAFGFGKPEVTSAASFSFKSPAASSFGSPGFSGLPASLATGPVRAPVAPAFGGGSSVAGFGSPGSHSHTAFSKPSSDTFGNSSISTSLSASSSIIATDNVLFTPRDKLTVEELEQFQSKKFTLGKIPLKPPPLELLNV | binds | binds | no binding | binds
